From the supplement of paper PMC12423691
The list shows a part of the results. Binding of human transcription factors and regulators to the viral nucleoprotein by AlphaScreen, crude cell-free proteins, amounts not normalised, one pass. Fold of the Venus control; higher = more signal. No active / inactive call. Single-pass screen; sequences are the whole Swiss-Prot entries looked up by name.

B1: GPBP1, Q86WP2 (protein)
chain: MAQHDFAPAWLNFPTPPSSTKSSLNFEKHSENFAWTENRYDVNRRRHNSSDGFDSAIGRPNGGNFGRKEKNGWRTHGRNGTENINHRGGYHGGSSRSRSSIFHAGKSQGLHENNIPDNETGRKEDKRERKQFEAEDFPSLNPEYEREPNHNKSLAAGVWEYPPNPKSRAPRMLVIKKGNTKDLQLSGFPVVGNLPSQPVKNGTGPSVYKGLVPKPAAPPTKPTQWKSQTKENKVGTSFPHESTFGVGNFNAFKSTAKNFSPSTNSVKECNRSNSSSPVDKLNQQPRLTKLTRMRTDKKSEFLKALKRDRVEEEHEDESRAGSEKDDDSFNLHNSNSTHQERDINRNFDENEIPQENGNASVISQQIIRSSTFPQTDVLSSSLEAEHRLLKEMGWQEDSENDETCAPLTEDEMREFQVISEQLQKNGLRKNGILKNGLICDFKFGPWKNSTFKPTTENDDTETSSSDTSDDDDV
B2: PRDX3, P30048 (protein)
chain: MAAAVGRLLRASVARHVSAIPWGISATAALRPAACGRTSLTNLLCSGSSQAKLFSTSSSCHAPAVTQHAPYFKGTAVVNGEFKDLSLDDFKGKYLVLFFYPLDFTFVCPTEIVAFSDKANEFHDVNCEVVAVSVDSHFSHLAWINTPRKNGGLGHMNIALLSDLTKQISRDYGVLLEGSGLALRGLFIIDPNGVIKHLSVNDLPVGRSVEETLRLVKAFQYVETHGEVCPANWTPDSPTIKPSPAASKEYFQKVNQ
B3: TBX20, Q9UMR3 (protein)
chain: MEFTASPKPQLSSRANAFSIAALMSSGGSKEKEATENTIKPLEQFVEKSSCAQPLGELTSLDAHGEFGGGSGSSPSSSSLCTEPLIPTTPIIPSEEMAKIACSLETKELWDKFHELGTEMIITKSGRRMFPTIRVSFSGVDPEAKYIVLMDIVPVDNKRYRYAYHRSSWLVAGKADPPLPARLYVHPDSPFTGEQLLKQMVSFEKVKLTNNELDQHGHIILNSMHKYQPRVHIIKKKDHTASLLNLKSEEFRTFIFPETVFTAVTAYQNQLITKLKIDSNPFAKGFRDSSRLTDIERESVESLIQKHSYARSPIRTYGGEEDVLGDESQTTPNRGSAFTTSDNLSLSSWVSSSSSFPGFQHPQSLTALGTSTASIATPIPHPIQGSLPPYSRLGMPLTPSAIASSMQGSGPTFPSFHMPRYHHYFQQGPYAAIQGLRHSSAVMTPFV
B4: ZNF250, P15622 (protein)
chain: MAAARLLPVPAGPQPLSFQAKLTFEDVAVLLSQDEWDRLCPAQRGLYRNVMMETYGNVVSLGLPGSKPDIISQLERGEDPWVLDRKGAKKSQGLWSDYSDNLKYDHTTACTQQDSLSCPWECETKGESQNTDLSPKPLISEQTVILGKTPLGRIDQENNETKQSFCLSPNSVDHREVQVLSQSMPLTPHQAVPSGERPYMCVECGKCFGRSSHLLQHQRIHTGEKPYVCSVCGKAFSQSSVLSKHRRIHTGEKPYECNECGKAFRVSSDLAQHHKIHTGEKPHECLECRKAFTQLSHLIQHQRIHTGERPYVCPLCGKAFNHSTVLRSHQRVHTGEKPHRCNECGKTFSVKRTLLQHQRIHTGEKPYTCSECGKAFSDRSVLIQHHNVHTGEKPYECSECGKTFSHRSTLMNHERIHTEEKPYACYECGKAFVQHSHLIQHQRVHTGEKPYVCGECGHAFSARRSLIQHERIHTGEKPFQCTECGKAFSLKATLIVHLRTHTGEKPYECNSCGKAFSQYSVLIQHQRIHTGEKPYECGECGRAFNQHGHLIQHQKVHRKL
B5: ZBTB16, Q05516 (protein)
chain: MDLTKMGMIQLQNPSHPTGLLCKANQMRLAGTLCDVVIMVDSQEFHAHRTVLACTSKMFEILFHRNSQHYTLDFLSPKTFQQILEYAYTATLQAKAEDLDDLLYAAEILEIEYLEEQCLKMLETIQASDDNDTEATMADGGAEEEEDRKARYLKNIFISKHSSEESGYASVAGQSLPGPMVDQSPSVSTSFGLSAMSPTKAAVDSLMTIGQSLLQGTLQPPAGPEEPTLAGGGRHPGVAEVKTEMMQVDEVPSQDSPGAAESSISGGMGDKVEERGKEGPGTPTRSSVITSARELHYGREESAEQVPPPAEAGQAPTGRPEHPAPPPEKHLGIYSVLPNHKADAVLSMPSSVTSGLHVQPALAVSMDFSTYGGLLPQGFIQRELFSKLGELAVGMKSESRTIGEQCSVCGVELPDNEAVEQHRKLHSGMKTYGCELCGKRFLDSLRLRMHLLAHSAGAKAFVCDQCGAQFSKEDALETHRQTHTGTDMAVFCLLCGKRFQAQSALQQHMEVHAGVRSYICSECNRTFPSHTALKRHLRSHTGDHPYECEFCGSCFRDESTLKSHKRIHTGEKPYECNGCGKKFSLKHQLETHYRVHTGEKPFECKLCHQRSRDYSAMIKHLRTHNGASPYQCTICTEYCPSLSSMQKHMKGHKPEEIPPDWRIEKTYLYLCYV
B6: LBX1, P52954 (protein)
chain: MTSKEDGKAAPGEERRRSPLDHLPPPANSNKPLTPFSIEDILNKPSVRRSYSLCGAAHLLAAADKHAQGGLPLAGRALLSQTSPLCALEELASKTFKGLEVSVLQAAEGRDGMTIFGQRQTPKKRRKSRTAFTNHQIYELEKRFLYQKYLSPADRDQIAQQLGLTNAQVITWFQNRRAKLKRDLEEMKADVESAKKLGPSGQMDIVALAELEQNSEATAGGGGGCGRAKSRPGSPVLPPGAPKAPGAGALQLSPASPLTDQPASSQDCSEDEEDEEIDVDD
B7: TCEAL1, Q15170 (protein)
chain: MDKPRKENEEEPQSAPKTDEERPPVEHSPEKQSPEEQSSEEQSSEEEFFPEELLPELLPEMLLSEERPPQEGLSRKDLFEGRPPMEQPPCGVGKHKLEEGSFKERLARSRPQFRGDIHGRNLSNEEMIQAADELEEMKRVRNKLMIMHWKAKRSRPYPI
B8: ELK3, P41970 (protein)
chain: MESAITLWQFLLQLLLDQKHEHLICWTSNDGEFKLLKAEEVAKLWGLRKNKTNMNYDKLSRALRYYYDKNIIKKVIGQKFVYKFVSFPEILKMDPHAVEISRESLLLQDSDCKASPEGREAHKHGLAALRSTSRNEYIHSGLYSSFTINSLQNPPDAFKAIKTEKLEEPPEDSPPVEEVRTVIRFVTNKTDKHVTRPVVSLPSTSEAAAASAFLASSVSAKISSLMLPNAASISSASPFSSRSPSLSPNSPLPSEHRSLFLEAACHDSDSLEPLNLSSGSKTKSPSLPPKAKKPKGLEISAPPLVLSGTDIGSIALNSPALPSGSLTPAFFTAQTPNGLLLTPSPLLSSIHFWSSLSPVAPLSPARLQGPSTLFQFPTLLNGHMPVPIPSLDRAASPVLLSSNSQKS
B9: SIK1, P57059 (protein)
chain: MVIMSEFSADPAGQGQGQQKPLRVGFYDIERTLGKGNFAVVKLARHRVTKTQVAIKIIDKTRLDSSNLEKIYREVQLMKLLNHPHIIKLYQVMETKDMLYIVTEFAKNGEMFDYLTSNGHLSENEARKKFWQILSAVEYCHDHHIVHRDLKTENLLLDGNMDIKLADFGFGNFYKSGEPLSTWCGSPPYAAPEVFEGKEYEGPQLDIWSLGVVLYVLVCGSLPFDGPNLPTLRQRVLEGRFRIPFFMSQDCESLIRRMLVVDPARRITIAQIRQHRWMRAEPCLPGPACPAFSAHSYTSNLGDYDEQALGIMQTLGVDRQRTVESLQNSSYNHFAAIYYLLLERLKEYRNAQCARPGPARQPRPRSSDLSGLEVPQEGLSTDPFRPALLCPQPQTLVQSVLQAEMDCELQSSLQWPLFFPVDASCSGVFRPRPVSPSSLLDTAISEEARQGPGLEEEQDTQESLPSSTGRRHTLAEVSTRLSPLTAPCIVVSPSTTASPAEGTSSDSCLTFSASKSPAGLSGTPATQGLLGACSPVRLASPFLGSQSATPVLQAQGGLGGAVLLPVSFQEGRRASDTSLTQGLKAFRQQLRKTTRTKGFLGLNKIKGLARQVCQAPASRASRGGLSPFHAPAQSPGLHGGAAGSREGWSLLEEVLEQQRLLQLQHHPAAAPGCSQAPQPAPAPFVIAPCDGPGAAPLPSTLLTSGLPLLPPPLLQTGASPVASAAQLLDTHLHIGTGPTALPAVPPPRLARLAPGCEPLGLLQGDCEMEDLMPCSLGTFVLVQ
B10: TNFRSF11A, Q9Y6Q6 (protein)
chain: MAPRARRRRPLFALLLLCALLARLQVALQIAPPCTSEKHYEHLGRCCNKCEPGKYMSSKCTTTSDSVCLPCGPDEYLDSWNEEDKCLLHKVCDTGKALVAVVAGNSTTPRRCACTAGYHWSQDCECCRRNTECAPGLGAQHPLQLNKDTVCKPCLAGYFSDAFSSTDKCRPWTNCTFLGKRVEHHGTEKSDAVCSSSLPARKPPNEPHVYLPGLIILLLFASVALVAAIIFGVCYRKKGKALTANLWHWINEACGRLSGDKESSGDSCVSTHTANFGQQGACEGVLLLTLEEKTFPEDMCYPDQGGVCQGTCVGGGPYAQGEDARMLSLVSKTEIEEDSFRQMPTEDEYMDRPSQPTDQLLFLTEPGSKSTPPFSEPLEVGENDSLSQCFTGTQSTVGSESCNCTEPLCRTDWTPMSSENYLQKEVDSGHCPHWAASPSPNWADVCTGCRNPPGEDCEPLVGSPKRGPLPQCAYGMGLPPEEEASRTEARDQPEDGADGRLPSSARAGAGSGSSPGGQSPASGNVTGNSNSTFISSGQVMNFKGDIIVVYVSQTSQEGAAAAAEPMGRPVQEETLARRDSFAGNGPRFPDPCGGPEGLREPEKASRPVQEQGGAKA

Molecular target: nucleoprotein N of Crimean-Congo hemorrhagic fever virus
Experiment: AlphaScreen luminescence signal relative to Venus negative control (fold); higher = stronger binding to CCHFV N
Description: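 AlphaScreen binding of cell-free made, FLAG-GST-tagged human transcription factors and regulators (crude translation products) to biotinylated N protein; signal as fold of the FLAG-GST-Venus control. One pass.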

Which AlphaScreen luminescence signal does the source give for B1 here?
The AlphaScreen luminescence signal was 18.1.

Which AlphaScreen luminescence signal does the source give for B2 here?
Its AlphaScreen luminescence signal is 1.49.

For B3, which AlphaScreen luminescence signal is on record?
The AlphaScreen luminescence signal was 2.7.

For B4, which AlphaScreen luminescence signal is on record?
Its AlphaScreen luminescence signal is 1.86.

Which AlphaScreen luminescence signal does the source give for B5 here?
The AlphaScreen luminescence signal was 1.63.

B6 was tested. Which AlphaScreen luminescence signal did it give?
Its AlphaScreen luminescence signal is 3.26.

How did the AlphaScreen luminescence signal turn out when B7 was run?
The AlphaScreen luminescence signal was 1.49.

How did the AlphaScreen luminescence signal turn out when B8 was run?
Its AlphaScreen luminescence signal is 3.16.

How did the AlphaScreen luminescence signal turn out when B9 was run?
The AlphaScreen luminescence signal was 2.28.

How did the AlphaScreen luminescence signal turn out when B10 was run?
The AlphaScreen luminescence signal was 1.44.
